The text below walks through data of article PMC5651818, “VPS18 recruits VPS41 to the human HOPS complex via a RING–RING interaction” (Biochemical Journal, 2017).

Test [1] deals with T1, GST-tagged VPS18 RING domain (residues 842–973) (human) (UniProt Q9P253).
T1 sequence: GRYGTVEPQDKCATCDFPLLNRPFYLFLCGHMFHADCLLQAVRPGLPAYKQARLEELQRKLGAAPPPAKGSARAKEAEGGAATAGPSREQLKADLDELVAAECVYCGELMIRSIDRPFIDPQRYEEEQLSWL
Description: pull-down; 0.5 nmol purified GST-tagged bait on magnetic glutathione beads; prey myc-tagged, wheat germ cell-free expression reaction; 4°C, 60 min; 20 mM Tris, 200 mM NaCl, 0.1% NP-40, 1 mM DTT, 1 mM EDTA; anti-myc immunoblot; only the target purified. Background: In western blotting, separated proteins are transferred to a membrane and probed.

Test [2] deals with T2, GST-tagged VPS41 RING domain (residues 778–854) (human) (UniProt P49754).
T2 sequence: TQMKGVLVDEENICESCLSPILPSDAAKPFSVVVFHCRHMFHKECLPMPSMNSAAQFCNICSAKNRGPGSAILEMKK
The description is as above.

Results are given in words; binding and its absence hold for the method and conditions named. In cells and extracts the contact can be indirect. Some binding calls cover weakened binding; strength is not graded here. Sequences can lack the tags named with a protein.

B1: myc-tagged full-length VPS11 (protein, UniProt Q9H270 1-941)
chain: MAAYLQWRRFVFFDKELVKEPLSNDGAAPGATPASGSAASKFLCLPPGITVCDSGRGSLVFGDMEGQIWFLPRSLQLTGFQAYKLRVTHLYQLKQHNILASVGEDEEGINPLVKIWNLEKRDGGNPLCTRIFPAIPGTEPTVVSCLTVHENLNFMAIGFTDGSVTLNKGDITRDRHSKTQILHKGNYPVTGLAFRQAGKTTHLFVVTTENVQSYIVSGKDYPRVELDTHGCGLRCSALSDPSQDLQFIVAGDECVYLYQPDERGPCFAFEGHKLIAHWFRGYLIIVSRDRKVSPKSEFTSRDSQSSDKQILNIYDLCNKFIAYSTVFEDVVDVLAEWGSLYVLTRDGRVHALQEKDTQTKLEMLFKKNLFEMAINLAKSQHLDSDGLAQIFMQYGDHLYSKGNHDGAVQQYIRTIGKLEPSYVIRKFLDAQRIHNLTAYLQTLHRQSLANADHTTLLLNCYTKLKDSSKLEEFIKKKSESEVHFDVETAIKVLRQAGYYSHALYLAENHAHHEWYLKIQLEDIKNYQEALRYIGKLPFEQAESNMKRYGKILMHHIPEQTTQLLKGLCTDYRPSLEGRSDREAPGCRANSEEFIPIFANNPRELKAFLEHMSEVQPDSPQGIYDTLLELRLQNWAHEKDPQVKEKLHAEAISLLKSGRFCDVFDKALVLCQMHDFQDGVLYLYEQGKLFQQIMHYHMQHEQYRQVISVCERHGEQDPSLWEQALSYFARKEEDCKEYVAAVLKHIENKNLMPPLLVVQTLAHNSTATLSVIRDYLVQKLQKQSQQIAQDELRVRRYREETTRIRQEIQELKASPKIFQKTKCSICNSALELPSVHFLCGHSFHQHCFESYSESDADCPTCLPENRKVMDMIRAQEQKRDLHDQFQHQLKCSNDSFSVIADYFGRGVFNKLTLLTDPPTARLTSSLEAGLQRDLLMHSRRGT
As for B1, the binding entry in test [1] and in test [2] was “no binding” each time.

B2: myc-tagged full-length VPS41 (protein, UniProt P49754 1-854)
chain: MAEAEEQETGSLEESTDESEEEESEEEPKLKYERLSNGVTEILQKDAASCMTVHDKFLALGTHYGKVYLLDVQGNITQKFDVSPVKINQISLDESGEHMGVCSEDGKVQVFGLYSGEEFHETFDCPIKIIAVHPHFVRSSCKQFVTGGKKLLLFERSWMNRWKSAVLHEGEGNIRSVKWRGHLIAWANNMGVKIFDIISKQRITNVPRDDISLRPDMYPCSLCWKDNVTLIIGWGTSVKVCSVKERHASEMRDLPSRYVEIVSQFETEFYISGLAPLCDQLVVLSYVKEISEKTEREYCARPRLDIIQPLSETCEEISSDALTVRGFQENECRDYHLEYSEGESLFYIVSPRDVVVAKERDQDDHIDWLLEKKKYEEALMAAEISQKNIKRHKILDIGLAYINHLVERGDYDIAARKCQKILGKNAALWEYEVYKFKEIGQLKAISPYLPRGDPVLKPLIYEMILHEFLESDYEGFATLIREWPGDLYNNSVIVQAVRDHLKKDSQNKTLLKTLAELYTYDKNYGNALEIYLTLRHKDVFQLIHKHNLFSSIKDKIVLLMDFDSEKAVDMLLDNEDKISIKKVVEELEDRPELQHVYLHKLFKRDHHKGQRYHEKQISLYAEYDRPNLLPFLRDSTHCPLEKALEICQQRNFVEETVYLLSRMGNSRSALKMIMEELHDVDKAIEFAKEQDDGELWEDLILYSIDKPPFITGLLNNIGTHVDPILLIHRIKEGMEIPNLRDSLVKILQDYNLQILLREGCKKILVADSLSLLKKMHRTQMKGVLVDEENICESCLSPILPSDAAKPFSVVVFHCRHMFHKECLPMPSMNSAAQFCNICSAKNRGPGSAILEMKK
B2: the results for the binding result in test [1] and in test [2] were “binds” and “no binding”, respectively.

B3: myc-tagged VPS18 with the C-terminal RING domain removed (residues 1–841) (domain or fragment, UniProt Q9P253 1-841)
chain: MASILDEYENSLSRSAVLQPGCPSVGIPHSGYVNAQLEKEVPIFTKQRIDFTPSERITSLVVSSNQLCMSLGKDTLLRIDLGKANEPNHVELGRKDDAKVHKMFLDHTGSHLLIALSSTEVLYVNRNGQKVRPLARWKGQLVESVGWNKALGTESSTGPILVGTAQGHIFEAELSASEGGLFGPAPDLYFRPLYVLNEEGGPAPVCSLEAERGPDGRSFVIATTRQRLFQFIGRAAEGAEAQGFSGLFAAYTDHPPPFREFPSNLGYSELAFYTPKLRSAPRAFAWMMGDGVLYGALDCGRPDSLLSEERVWEYPEGVGPGASPPLAIVLTQFHFLLLLADRVEAVCTLTGQVVLRDHFLEKFGPLKHMVKDSSTGQLWAYTERAVFRYHVQREARDVWRTYLDMNRFDLAKEYCRERPDCLDTVLAREADFCFRQRRYLESARCYALTQSYFEEIALKFLEARQEEALAEFLQRKLASLKPAERTQATLLTTWLTELYLSRLGALQGDPEALTLYRETKECFRTFLSSPRHKEWLFASRASIHELLASHGDTEHMVYFAVIMQDYERVVAYHCQHEAYEEALAVLARHRDPQLFYKFSPILIRHIPRQLVDAWIEMGSRLDARQLIPALVNYSQGGEVQQVSQAIRYMEFCVNVLGETEQAIHNYLLSLYARGRPDSLLAYLEQAGASPHRVHYDLKYALRLCAEHGHHRACVHVYKVLELYEEAVDLALQVDVDLAKQCADLPEEDEELRKKLWLKIARHVVQEEEDVQTAMACLASCPLLKIEDVLPFFPDFVTIDHFKEAICSSLKAYNHHIQELQREMEEATASAQRIRRDLQELR
In the case of B3, the binding entry in test [2] is listed as “no binding”.

B4: myc-tagged VPS18 RING domain alone (residues 842–973) (domain or fragment, UniProt Q9P253 842-973)
chain: T1 sequence
Consider B4, for which, in test [2], the binding result was “binds”.

B5: myc-tagged full-length VPS8 (protein, UniProt Q8N3P4-3 1-1426)
chain: MENEPDHENVEQSLCAKTSEEELNKSFNLEASLSKFSYIDMDKELEFKNDLIDDKEFDIPQVDTPPTLESILNETDDEDESFILEDPTLLNIDTIDSHSYDTSSVASSDSGDRTNLKRKKKLPDSFSLHGSVMRHSLLKGISAQIVSAADKVDAGLPTAIAVSSLIAVGTSHGLALIFDQNQALRLCLGSTSVGGQYGAISALSINNDCSRLLCGFAKGQITMWDLASGKLLRSITDAHPPGTAILHIKFTDDPTLAICNDSGGSVFELTFKRVMGVRTCESRCLFSGSKGEVCCIEPLHSKPELKDHPITQFSLLAMASLTKILVIGLKPSLKVWMTFPYGRMDPSSVPLLAWHFVAVQNYVNPMLAFCRGDVVHFLLVKRDESGAIHVTKQKHLHLYYDLINFTWINSRTVVLLDSVEKLHVIDRQTQEELETVEISEVQLVYNSSHFKSLATGGNVSQALALVGEKACYQSISSYGGQIFYLGTKSVYVMMLRSWRERVDHLLKQDCLTEALALAWSFHEGKAKAVVGLSGDASKRKAIVADRMVEILFHYADRALKKCPDQGKIQVMEQHFQDMVPVIVDYCLLLQRKDLLFSQMYDKLSENSVAKGVFLECLEPYILSDKLVGITPQVMKDLIVHFQDKKLMENVEALIVHMDITSLDIQQVVLMCWENRLYDAMIYVYNRGMNEFISPMEKLFRVIAPPLNAGKTLTDEQVVMGNKLLVYISCCLAGRAYPLGDIPEDLVPLVKNQVFEFLIRLHSAEASPEEEIYPYIRTLLHFDTREFLNVLALTFEDFKNDKQAVEYQQRIVDILLKVMVENSDFTPSQVGCLFTFLARQLAKPDNTLFVNRTLFDQVLEFLCSPDDDSRHSERQQVLLELLQAGGIVQFEESRLIRMAEKAEFYQICEFMYEREHQYDKIIDCYLRDPLREEEVFNYIHNILSIPGHSAEEKQSVWQKAMDHIEELVSLKPCKAAELVATHFSGHIETVIKKLQNQVLLFKFLRSLLDPREGIHVNQELLQISPCITEQFIELLCQFNPTQVIETLQVLECYRLEETIQITQKYQLHEVTAYLLEKKGDIHGAFLIMLERLQSKLQEVTHQGENTKEDPSLKDVEDTMVETIALCQRNSHNLNQQQREALWFPLLEAMMAPQKLSSSAIPHLHSEALKSLTMQVLNSMAAFIALPSILQRILQDPVYGKGKLGEIQGLILGMLDTFNYEQTLLETTTSLLNQDLHWSLCNLRASVTRGLNPKQDYCSICLQQYKRRQEMADEIIVFSCGHLYHSFCLQNKECTVEFEGQTRWTCYKCSSSNKVGKLSENSSEIKKGRITPSQVKMSPSYHQSKGDPTAKKGTSEPVLDPQQIQAFDQLCRLYRGSSRLALLTELSQNRSSESYRPFSGSQSAPAFNSIFQNENFQLQLIPPPVTED
Take B5: in test [1], the binding result is listed as “no binding”.

B6: myc-tagged full-length VPS18 (protein, UniProt Q9P253 1-973)
chain: MASILDEYENSLSRSAVLQPGCPSVGIPHSGYVNAQLEKEVPIFTKQRIDFTPSERITSLVVSSNQLCMSLGKDTLLRIDLGKANEPNHVELGRKDDAKVHKMFLDHTGSHLLIALSSTEVLYVNRNGQKVRPLARWKGQLVESVGWNKALGTESSTGPILVGTAQGHIFEAELSASEGGLFGPAPDLYFRPLYVLNEEGGPAPVCSLEAERGPDGRSFVIATTRQRLFQFIGRAAEGAEAQGFSGLFAAYTDHPPPFREFPSNLGYSELAFYTPKLRSAPRAFAWMMGDGVLYGALDCGRPDSLLSEERVWEYPEGVGPGASPPLAIVLTQFHFLLLLADRVEAVCTLTGQVVLRDHFLEKFGPLKHMVKDSSTGQLWAYTERAVFRYHVQREARDVWRTYLDMNRFDLAKEYCRERPDCLDTVLAREADFCFRQRRYLESARCYALTQSYFEEIALKFLEARQEEALAEFLQRKLASLKPAERTQATLLTTWLTELYLSRLGALQGDPEALTLYRETKECFRTFLSSPRHKEWLFASRASIHELLASHGDTEHMVYFAVIMQDYERVVAYHCQHEAYEEALAVLARHRDPQLFYKFSPILIRHIPRQLVDAWIEMGSRLDARQLIPALVNYSQGGEVQQVSQAIRYMEFCVNVLGETEQAIHNYLLSLYARGRPDSLLAYLEQAGASPHRVHYDLKYALRLCAEHGHHRACVHVYKVLELYEEAVDLALQVDVDLAKQCADLPEEDEELRKKLWLKIARHVVQEEEDVQTAMACLASCPLLKIEDVLPFFPDFVTIDHFKEAICSSLKAYNHHIQELQREMEEATASAQRIRRDLQELRGRYGTVEPQDKCATCDFPLLNRPFYLFLCGHMFHADCLLQAVRPGLPAYKQARLEELQRKLGAAPPPAKGSARAKEAEGGAATAGPSREQLKADLDELVAAECVYCGELMIRSIDRPFIDPQRYEEEQLSWL
Consider B6, for which the figures for the binding result in test [1] and in test [2] were “no binding” and “binds”, respectively.
